# Measured values from article PMC6212790.
# This is one part of the list. At the low end of the ranking the order means little.
# Target: T1, GST-Rok (full length) (UniProt O34857)
# T1 sequence: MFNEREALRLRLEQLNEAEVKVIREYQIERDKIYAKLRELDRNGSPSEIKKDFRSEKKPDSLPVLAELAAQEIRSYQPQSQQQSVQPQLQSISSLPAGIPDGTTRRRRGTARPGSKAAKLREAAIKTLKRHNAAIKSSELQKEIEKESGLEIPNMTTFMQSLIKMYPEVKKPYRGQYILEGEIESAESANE
# Test: protein binding microarray;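 also: rank score from −0.5 (least bound) to 0.5 (best bound)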
# Settings: Rok is a gene silencer of Bacillus subtilis; high values mean tight binding; most listed sequences are background and not binding sites; double strand, one strand shown
row,Sequence,binding signal
1,CGGCTCCA,-0.34 E-score
2,GAAGACTC,-0.114 E-score
3,AAGCAGAG,-0.194 E-score
4,AAACCGAC,0.0208 E-score
5,GTCCCCAC,-0.264 E-score
6,TGTTAACA,0.207 E-score
7,ATGGACAG,-0.0031 E-score
8,ATCGACTG,-0.0208 E-score
9,AAACGCTC,-0.122 E-score
10,CTCGAGTA,0.0734 E-score
11,AATCGAAT,0.0416 E-score
12,AAGCACTC,-0.264 E-score
13,AGGCATCG,0.00217 E-score
14,CAACCCTC,-0.209 E-score
15,CCGCACCC,-0.317 E-score
16,AGTCGACT,-0.00311 E-score
17,ACTTTAAA,0.242 E-score
18,CTGCTCCC,-0.265 E-score
19,TCCGGGAA,-0.26 E-score
20,CCCGTCTA,-0.29 E-score
21,GCCGCCCA,-0.198 E-score
22,TTCGCAAA,0.157 E-score
23,GAGCCTTA,-0.0793 E-score
24,ACGCTTTC,-0.258 E-score
25,AACAACGA,0.0652 E-score

row,Sequence,binding signal
1,TATCAGGA,0.139 E-score
2,CCACGGGC,-0.215 E-score
3,GCCCTGCA,-0.216 E-score
4,AGAACCGG,-0.204 E-score
5,ACTTAACC,0.121 E-score
6,ACCCGTCC,-0.177 E-score
7,ACAGCAGC,-0.00981 E-score
8,AGGGGCTG,-0.483 E-score
9,CATGGCGG,-0.227 E-score
10,CGCCAGTA,-0.111 E-score
11,ATCCGTCC,-0.178 E-score
12,AGCGCTAT,-0.0624 E-score
13,CCACAGCC,-0.217 E-score
14,AGTGCACG,-0.0534 E-score
15,CTTGCTAC,-0.05 E-score
16,CGGTATAC,0.0441 E-score
17,CCCCGGTA,-0.0467 E-score
18,AAGCCGCT,-0.00361 E-score
19,AAATATCA,0.271 E-score
20,AATCGCGC,0.205 E-score
21,CCTTCAAG,-0.258 E-score
22,AGGGCCTA,-0.298 E-score
23,AGGTTTAG,0.0105 E-score
24,CATTTGAG,0.0304 E-score
25,ACTTTTTG,-0.213 E-score

row,Sequence,binding signal
1,CCCCGTCG,-0.379 E-score
2,ACGCATGA,-0.0569 E-score
3,TACAACGA,0.203 E-score
4,GACGCGGC,-0.33 E-score
5,AATTGACA,0.0528 E-score
6,GTTGGCCA,-0.0562 E-score
7,AATACGGT,0.222 E-score
8,GATCCGGA,0.154 E-score
9,GAAGGGTC,-0.33 E-score
10,CCTGCGAC,-0.25 E-score
11,CCGCGCAA,-0.141 E-score
12,AATTGCTG,0.22 E-score
13,TCGTGAAA,0.103 E-score
14,AGCGATTA,0.109 E-score
15,CCGTACAG,0.0449 E-score
16,ATGGGGTG,-0.221 E-score
17,AGTGCGAC,-0.0159 E-score
18,GCGGGACC,-0.299 E-score
19,CCGAGACA,-0.207 E-score
20,CACCAGCC,-0.217 E-score
21,CTTCCAAG,-0.126 E-score
22,GATCTGAC,-0.0144 E-score
23,TACCACGA,0.136 E-score
24,AGCGAAAC,-0.0336 E-score
25,CCTCTCGA,-0.153 E-score

row,Sequence,binding signal
1,ATATTTCA,0.213 E-score
2,CTAGACCC,-0.252 E-score
3,CAACGGAC,-0.0159 E-score
4,CGGGCCGA,-0.256 E-score
5,CACTTCCC,-0.26 E-score
6,ACATTTTC,0.136 E-score
7,AGTCTTAC,0.101 E-score
8,CGTGAAAA,-0.0114 E-score
9,CCCATACA,-0.0298 E-score
10,ACACTCCA,-0.0691 E-score
11,AGCAGACC,-0.166 E-score
12,CAACGATC,-0.0242 E-score
13,CATGGGCG,-0.239 E-score
14,ACATCCGC,-0.0419 E-score
15,CTGATGCA,-0.106 E-score
16,CATTTTTC,0.057 E-score
17,CTATTTAA,0.0252 E-score
18,AGGTAGGC,-0.115 E-score
19,CCGGACGG,-0.229 E-score
20,ACGTAACA,0.165 E-score
21,GGCACGAC,-0.246 E-score
22,GACACTAA,0.205 E-score
23,CGTCGCCC,-0.331 E-score
24,CGCCAGCC,-0.294 E-score
25,GTGGTTCA,-0.0937 E-score

row,Sequence,binding signal
1,CGAAGTCA,0.00871 E-score
2,GAGAAGCA,-0.0779 E-score
3,GGAATTAC,0.26 E-score
4,AAGCGGGG,-0.236 E-score
5,TCGCCAGA,-0.118 E-score
6,CTACCATA,0.328 E-score
7,GGCCATAA,0.00475 E-score
8,CTAAGTTC,0.152 E-score
9,AATGCAGA,0.0743 E-score
10,CTCGTTCA,-0.214 E-score
11,CGGCCAGA,-0.116 E-score
12,GAGATGGA,-0.151 E-score
13,CAGTACTA,0.279 E-score
14,CGGCATAA,-0.0488 E-score
15,ACCCGTGG,-0.187 E-score
16,AAAAGTCA,0.0581 E-score
17,CTTGCCAC,-0.0642 E-score
18,AGCAAAGC,-0.0901 E-score
19,AGACCCCC,-0.406 E-score
20,CGTGATGC,-0.115 E-score
21,AGTTCTAA,0.15 E-score
22,ACCTTCGT,-0.242 E-score
23,AGCCTCAA,0.00804 E-score
24,TAAACATA,0.28 E-score
25,ACCATGGA,0.131 E-score

row,Sequence,binding signal
1,AAGCACGA,0.0764 E-score
2,GCAGTTAA,0.125 E-score
3,CACTAATC,0.0536 E-score
4,AAGCGTGA,-0.24 E-score
5,CCCGTGGA,-0.26 E-score
6,CCGAAGTA,0.0367 E-score
7,CTTGCACA,0.117 E-score
8,CGTATGTA,0.268 E-score
9,AGGAAGTG,-0.139 E-score
10,GCTGACAC,-0.00646 E-score
11,GACTAAGA,0.189 E-score
12,AAGTGCCG,-0.16 E-score
13,CTATAGTA,0.365 E-score
14,ACAAACCT,0.0189 E-score
15,ATCACACA,0.125 E-score
16,CTGGAGCC,-0.233 E-score
17,ACATCCCC,-0.26 E-score
18,GATCCGCC,-0.346 E-score
19,CACTTTCC,0.0273 E-score
20,GATTAAAC,0.0283 E-score
21,TTGGTAAA,0.217 E-score
22,AAGGCTAA,-0.17 E-score
23,CCAAGAAC,-0.19 E-score
24,CTGATTTC,0.0708 E-score
25,CACCCATA,0.0794 E-score

row,Sequence,binding signal
1,CTGTTTAA,-0.1 E-score
2,AGAGATAC,0.22 E-score
3,AGACCCTC,-0.376 E-score
4,ACAGTGTC,0.114 E-score
5,CAATGCTC,-0.205 E-score
6,ACCGTGGC,-0.203 E-score
7,AGGACACT,0.0286 E-score
8,GGACTGAA,-0.176 E-score
9,ATGCTCAC,-0.00157 E-score
10,ATGGGATC,-0.0663 E-score
11,GAATTACA,0.306 E-score
12,GTAACCCA,-0.0342 E-score
13,CGCACACA,-0.228 E-score
14,TACTCTCA,0.22 E-score
15,CCGACGCC,-0.361 E-score
16,CTCGGCCA,-0.164 E-score
17,AATTCTTC,0.162 E-score
18,GGGAACCA,-0.324 E-score
19,ACACTAAC,0.157 E-score
20,GCGCAACA,0.00842 E-score
21,GGTTGCAA,-0.0509 E-score
22,ACTTTCAC,0.104 E-score
